Test results from PMC4336329 (PLoS ONE, 2015).
The whole screen tested about 310,000 compounds, of which about 2,200 (0.71%) showed an effect of 50% or more. Effects have a minus sign here. Some of the results follow.

What follows are molecules tested against human ether-à-go-go-related gene (hERG) potassium channel (human, UniProt Q12809) (assay: primary screen, population patch clamp on CHO cells stably expressing hERG).
human ether-à-go-go-related gene (hERG) potassium channel, sequence (Q12809 whole entry, looked up): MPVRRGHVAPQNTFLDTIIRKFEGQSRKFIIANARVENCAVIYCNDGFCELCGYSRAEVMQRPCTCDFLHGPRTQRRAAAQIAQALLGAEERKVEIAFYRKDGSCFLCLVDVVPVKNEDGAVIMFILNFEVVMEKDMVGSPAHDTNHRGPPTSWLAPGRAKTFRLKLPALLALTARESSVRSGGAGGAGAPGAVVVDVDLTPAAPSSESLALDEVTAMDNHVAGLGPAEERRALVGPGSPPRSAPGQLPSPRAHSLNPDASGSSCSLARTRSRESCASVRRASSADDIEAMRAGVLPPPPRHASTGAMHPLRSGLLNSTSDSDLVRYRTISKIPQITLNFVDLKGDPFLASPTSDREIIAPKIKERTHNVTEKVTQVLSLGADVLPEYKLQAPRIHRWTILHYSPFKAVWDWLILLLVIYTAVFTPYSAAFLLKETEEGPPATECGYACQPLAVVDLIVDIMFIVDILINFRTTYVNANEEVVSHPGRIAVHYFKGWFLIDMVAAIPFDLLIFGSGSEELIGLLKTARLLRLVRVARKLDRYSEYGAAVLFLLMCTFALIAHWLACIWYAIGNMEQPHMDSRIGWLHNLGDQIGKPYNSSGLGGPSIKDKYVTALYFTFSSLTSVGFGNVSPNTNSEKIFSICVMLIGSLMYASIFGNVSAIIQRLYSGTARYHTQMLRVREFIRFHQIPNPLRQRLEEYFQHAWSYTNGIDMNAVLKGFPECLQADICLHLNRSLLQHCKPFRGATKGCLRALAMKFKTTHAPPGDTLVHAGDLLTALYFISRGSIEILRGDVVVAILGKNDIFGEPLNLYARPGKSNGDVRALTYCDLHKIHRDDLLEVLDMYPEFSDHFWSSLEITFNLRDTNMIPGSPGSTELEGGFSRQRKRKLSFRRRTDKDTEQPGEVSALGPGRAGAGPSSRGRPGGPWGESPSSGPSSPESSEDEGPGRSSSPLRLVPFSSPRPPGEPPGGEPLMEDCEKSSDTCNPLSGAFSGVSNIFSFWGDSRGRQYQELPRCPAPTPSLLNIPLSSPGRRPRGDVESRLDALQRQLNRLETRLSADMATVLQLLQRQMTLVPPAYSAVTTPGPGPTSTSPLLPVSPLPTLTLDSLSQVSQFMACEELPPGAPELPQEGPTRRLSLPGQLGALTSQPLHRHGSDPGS

| Compound | hERG current change (%, negative = inhibition) at 1uM [%] |
| --- | --- |
| Cc1ccc(-n2nc(C(=O)NCc3ccco3)c3c4ccccc4n(C)c3c2=O)cc1 | 9.53 |
| O/C(=C\Sc1nnc(Cc2ccccc2)o1)c1ccc(F)cc1 | 2.71 |
| N#Cc1c(N)nc(SCC(=O)OCc2ccccc2)c(C#N)c1-c1ccco1 | 8.52 |
| COc1ccc(C2CC(c3ccccc3)=NN2C(=O)COC(=O)COc2ccccc2)cc1 (centres unmarked) | 8.82 |
| O=C(CSc1nnnn1-c1ccc2c(c1)CCC2)Nc1ccc2c(c1)OCCO2 | 9.44 |
| CC(Nc1ccc(N2CCOCC2)cc1)C(=O)N1c2ccccc2CC1C (centres unmarked) | 7.12 |
| Cc1cc(NC(=O)c2c(F)cccc2Cl)n(-c2nc3ccccc3[nH]2)n1 | 4.94 |
| Cc1cc(NS(=O)(=O)c2ccc(NC(=O)c3cc4ccccc4o3)cc2)nc(C)n1 | 2.74 |
| CC(C)NC(=O)c1ccccc1-c1nc(-c2ccccc2Cl)no1 | 7.21 |
| O=C(NC(Cc1c[nH]c2ccccc12)C(=O)Nc1ccc(OC(F)(F)F)cc1)c1cccs1 (centres unmarked) | 4.94 |
| CC1(C)OC(=O)C(=Cc2ccc(-c3ccc(S(N)(=O)=O)cc3)o2)C(=O)O1 | 12.6 |
| Cc1nc2cccc(C(=O)NC3CCCCC3)c2o1 | 15.4 |
| O=C(N/N=C/c1cccnc1)c1cccc(NC(=O)c2ccccc2Cl)c1 | 16.4 |
| CCOC(=O)c1sc(NC(=O)CN2C(=O)NC3(CC(C)CC(C)(C)C3)C2=O)cc1C (centres unmarked) | -2.34 |
| Cc1cc(C)n(CCNC(=O)CC2C(=O)NCCN2Cc2ccc(C)o2)n1 (centres unmarked) | 6.27 |
| Cc1ccc(C)c(N(CC(=O)NCc2ccco2)C(=O)CNS(=O)(=O)c2ccccc2)c1 | 12.3 |
| CCOc1ccc2c(c1)[nH]c(=S)n2C | 8.73 |
| O=C(NCc1ccco1)C(=O)NCC1OCCN1S(=O)(=O)c1ccc(F)cc1 (centres unmarked) | 3.16 |
| NC(=O)c1cc(N2C(=O)C3CC=CCC3C2=O)ccc1N1CCCCC1 (centres unmarked) | -1.74 |

| Compound | hERG current change (%, negative = inhibition) at 1uM [%] |
| --- | --- |
| O=C(c1ccc(N2CCCC2=O)cc1)N1CCOCC1 | 14.2 |
| CC(C)OC(=O)NC(C)(C)COC(=O)Nc1cccc(Cl)c1 | -3.54 |
| CS(=O)(=O)Oc1ccccc1/C=C1/N=C(c2ccc(F)cc2)OC1=O | 12 |
| CCC(=O)Nc1ccc(-c2nc(-c3ccccc3)n(CC(=O)N3CCCCC3)n2)cc1 | 8.01 |
| CC(C)c1nc2sc3ccccc3c(=O)c2c(=O)n1Cc1ccccc1 | 6.97 |
| O=C(NCc1cccnc1)Nc1cccc(F)c1 | 8.66 |
| C=CCn1c(C(C)NC(=O)CCC)nc2ccccc21 (centres unmarked) | 5.97 |
| Cc1cc(C)cc(NC(=O)CSc2nc3nc(C)cc(C)n3n2)c1 | -16.9 |
| CC1CC(CC(=O)NNc2nc(-c3ccccc3)cs2)C(=O)O1 (centres unmarked) | 18.9 |
| O=C(O)c1ccc(NC(=O)c2ccc3c(c2)C(=O)N(c2ccccc2)C3=O)cc1 | 4.69 |
| O=c1cc(-c2ccccc2)nc(N2CCN(Cc3ccccc3)CC2)[nH]1 | 12.8 |
| O=C(NNS(=O)(=O)c1ccc([N+](=O)[O-])cc1)C(=O)Nc1cccc(C(=O)O)c1 | 13.6 |
| S=C(NCc1ccco1)Nc1ccc2c(c1)OCCO2 | 9.54 |
| COc1ccc(C(c2c[nH]c3ccccc23)c2c[nH]c3ccccc23)cc1O | 13.4 |
| O=C(O)CN1C(=O)/C(=C/C=C/c2ccccc2)SC1=S | 6.75 |
| O=C(Nn1cnnc1)c1cc(Cl)cc(Cl)c1 | 14.7 |
| O=C(O)c1ccccc1C(=O)Nc1nc(-c2ccc3ccccc3c2)cs1 | 18.4 |
| CCOc1ccc(N2CC(O)(c3ccc(F)cc3)[N+]3=C2CCCC3)cc1.[Br-] (centres unmarked) | -13.2 |
| COc1ccc2oc(C(=O)NCc3ccco3)c(C)c2c1 | 12.3 |

| Compound | hERG current change (%, negative = inhibition) at 1uM [%] |
| --- | --- |
| COc1ncccc1-c1nnn(-c2ccccc2Br)n1 | -2.77 |
| CCN1CCN(Cc2nc(N)nc(Nc3ccc(C)c(C)c3)n2)CC1 | -14.8 |
| NC(=O)NOCc1ncc(C(F)(F)F)cc1Cl | 10.1 |
| O=C(CSc1ccc(-c2ccco2)nn1)Nc1ccccc1F | 10.5 |
| O=C(NCCCN1CCOCC1)c1ccc2c(=O)n(CCc3ccccc3)c(=O)[nH]c2c1 | 6.51 |
| COc1cccc(NC(=O)CN(C)C(=O)c2csc3c2CCCC3)c1 | 7.5 |
| O=C(NCCc1ccc(Cl)cc1Cl)c1cccnc1 | 12.2 |
| O=C(COC(=O)CNC(=O)c1cccc(OC(F)F)c1)NNC(=O)c1ccccc1 | 10.1 |
| O=C(CSC1=NC2(CCCCC2)N=C1c1ccccc1)Nc1ccc2c(c1)OCCO2 | -4.48 |
| Cc1cccc(C(=O)NCC(=O)N2CCCC2)c1 | 13 |
| CCn1ncc(S(=O)(=O)N2CCN(c3cccc(OC)c3)CC2)c1C | 15.4 |
| O=C(NC1(C(F)(F)F)OCCO1)c1ccc(F)cc1 | 11.5 |
| CCN(C(=O)COC(=O)C(Cc1ccccc1)N1C(=O)c2ccccc2C1=O)C1CCS(=O)(=O)C1 (centres unmarked) | -9.49 |
| CC1CCc2c(sc(NC(=O)COC(=O)C3CCCO3)c2C#N)C1 (centres unmarked) | 4.76 |
| O=C(N/N=C\c1c(O)ccc2ccccc12)c1ccc(O)cc1 | 10.7 |
| O=C(CS(=O)(=O)Cc1ccccc1)Nc1cccnc1 | 14.3 |
| Cc1c(N2C(=O)CS/C2=N\N=C\c2ccc(Br)cc2)c(=O)n(-c2ccccc2)n1C | -6.67 |
| O=Cc1ccc(Oc2ncccn2)cc1 | 10.4 |
